Here are results for 85 molecules from paper PMC4336329 (PLoS ONE, 2015).

Each structure is given as a SMILES string. About 2,200 (0.71%) of roughly 310,000 compounds showed an effect of 50% or more. The effect is printed as a negative number. The list shows a part of the results.

Chain of human ether-à-go-go-related gene (hERG) potassium channel (Q12809 whole entry, looked up): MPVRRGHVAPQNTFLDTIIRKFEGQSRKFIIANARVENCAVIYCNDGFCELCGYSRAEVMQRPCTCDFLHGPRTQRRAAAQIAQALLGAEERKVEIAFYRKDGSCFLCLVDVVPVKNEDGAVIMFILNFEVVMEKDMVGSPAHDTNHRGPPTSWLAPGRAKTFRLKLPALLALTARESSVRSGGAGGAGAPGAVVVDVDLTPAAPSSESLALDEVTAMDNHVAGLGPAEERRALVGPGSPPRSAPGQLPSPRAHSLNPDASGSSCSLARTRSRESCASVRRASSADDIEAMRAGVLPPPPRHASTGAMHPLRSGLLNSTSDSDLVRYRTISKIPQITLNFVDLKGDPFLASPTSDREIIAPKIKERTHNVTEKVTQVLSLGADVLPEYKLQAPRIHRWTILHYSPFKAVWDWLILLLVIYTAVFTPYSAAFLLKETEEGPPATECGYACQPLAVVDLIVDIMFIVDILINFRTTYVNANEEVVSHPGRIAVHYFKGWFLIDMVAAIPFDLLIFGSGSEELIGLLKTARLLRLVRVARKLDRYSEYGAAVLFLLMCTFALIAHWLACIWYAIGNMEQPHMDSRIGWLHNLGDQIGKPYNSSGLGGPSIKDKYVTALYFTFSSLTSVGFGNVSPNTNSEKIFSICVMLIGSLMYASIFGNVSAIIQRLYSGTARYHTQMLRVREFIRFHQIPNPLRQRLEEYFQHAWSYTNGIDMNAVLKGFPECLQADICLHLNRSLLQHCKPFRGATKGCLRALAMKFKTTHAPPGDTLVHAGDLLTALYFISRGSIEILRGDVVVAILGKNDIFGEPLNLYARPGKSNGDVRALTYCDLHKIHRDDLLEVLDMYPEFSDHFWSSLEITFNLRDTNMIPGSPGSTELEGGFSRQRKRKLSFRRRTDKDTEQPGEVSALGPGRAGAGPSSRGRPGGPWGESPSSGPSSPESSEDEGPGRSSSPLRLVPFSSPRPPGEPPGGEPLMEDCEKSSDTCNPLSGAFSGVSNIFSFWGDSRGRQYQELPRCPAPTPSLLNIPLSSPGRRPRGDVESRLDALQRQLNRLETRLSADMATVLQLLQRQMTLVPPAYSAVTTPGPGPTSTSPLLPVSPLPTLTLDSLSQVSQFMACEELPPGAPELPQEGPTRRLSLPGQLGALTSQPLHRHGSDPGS

The assay addresses human ether-à-go-go-related gene (hERG) potassium channel (human, UniProt Q12809). Kind of assay: primary screen, population patch clamp on CHO cells stably expressing hERG.
As to `COC(=O)C1=C(N)OC2=C(C(=O)CCC2)C1c1cccs1` (stereo not shown), the “hERG current change (%, negative = inhibition) at 1uM” value amounted to 2.11%.
As to `CCN(CC)S(=O)(=O)c1ccc(NS(=O)(=O)c2ccc(F)cc2)cc1`, the “hERG current change (%, negative = inhibition) at 1uM” value came out at 19.3%.
Regarding `NC(=O)C1CCN(c2cc(N3CCOCC3)ccc2[N+](=O)[O-])CC1`, the “hERG current change (%, negative = inhibition) at 1uM” value turned out to be 25.1%.
For `O=C(COC(=O)CCC(=O)c1ccc(Cl)cc1)NCCc1ccccc1` the value was 9.92%.
On to `CCCNC(=O)NNC(=O)c1ccc(F)cc1`, for which the “hERG current change (%, negative = inhibition) at 1uM” value was determined as 2.91%.
For `COc1ccc(-c2cc(OC)c3c(C)oc(C)c3c(=O)c2)cc1OC` the value was 15.5%; for `O=C(NCCC(=O)N1CCN(c2ccccn2)CC1)c1ccc(Br)cc1`, 2.75%.
For `CN(C)S(=O)(=O)c1ccc(C(=O)NC(=O)CSc2ccccc2)cc1` the value was 8.85%.
Consider `CCn1c(C(=O)N2CCC(C(=O)NCc3cccs3)CC2)cc2sccc21`, for which the “hERG current change (%, negative = inhibition) at 1uM” value is -20.7%.
Regarding `CN(C(=O)c1cccnc1)c1nnc(-c2ccccn2)s1`, the “hERG current change (%, negative = inhibition) at 1uM” value was 11%.
For the molecule `COCCCNC(=O)C(Cc1ccccc1)NS(=O)(=O)c1ccc2c(c1)c(=O)n(C)c(=O)n2C` (stereo not shown), the “hERG current change (%, negative = inhibition) at 1uM” value is on record as 1.74%.
For `C[C@H](NC(N)=O)C(=O)OCC(=O)NCc1cccs1` the value was 0.678%; for `Cc1cccc(-n2c(O)c(C=Nc3cc(O)ccc3C)c3ccccc3c2=O)n1`, 7.6%; for `O=C(/C=C/c1ccc(Br)cc1)Nc1ccc(S(=O)(=O)Nc2ncccn2)cc1`, -4.6%.
Regarding `Cc1cc(OCC(=O)N2CCN(c3ccccn3)CC2)c(C)cc1Br`, the “hERG current change (%, negative = inhibition) at 1uM” value stood at 3.11%.
Consider `COc1ccc(NC(=O)c2ccc(-c3ccc(C(C)=O)cc3)o2)cn1`, for which the “hERG current change (%, negative = inhibition) at 1uM” value is reported as 10.4%.
Turning to `Cc1ccc(C(=O)O)cc1NS(=O)(=O)c1ccc2ccccc2c1`, the “hERG current change (%, negative = inhibition) at 1uM” value came to 8.23%.
For `CCN1C(=O)[C@H]2[C@@H](c3ccc(-c4ccc(F)cc4)c(OC)c3)N[C@@](CC(C)C)(C(=O)OC)[C@H]2C1=O.O=C(O)C(F)(F)F` the value was 7.34%; for `Cc1cc(NC(=O)CCN2C(=O)C3C4CCC(C4)C3C2=O)cc(C)c1Br` (stereo not shown), -7.77%.
In the case of `O=C1C=C(c2ccc(F)cc2OCc2ccccc2)C[C@@H](c2ccc3c(c2)OCO3)C1`, the “hERG current change (%, negative = inhibition) at 1uM” value worked out at 11.3%.
As to `Cc1cccc(CN2CCCC(C(=O)c3ccc(C(F)(F)F)cc3)C2)n1` (stereo not shown), the “hERG current change (%, negative = inhibition) at 1uM” value was -40%.
For `Cc1nnc(Oc2ccc([N+](=O)[O-])cc2)c2ccccc12` the value was 4.88%; for `CCC(=O)N(CCC(c1ccco1)c1ccccc1OC)Cc1cccs1` (stereo not shown), -31.3%.
For `COc1ccc(NC(=O)CSc2nnc(-c3ccoc3C)n2CC2CCCO2)cc1` (stereo not shown) the value was 9.49%.
For `CC(=O)c1c(C)n(-c2ccc(Cl)cc2)c2ccc(O)cc12` the value was 16.5%.
Consider `COC(=O)c1c(C)n(-c2ccc(C)cc2)c2ccc(O)cc12`, for which the “hERG current change (%, negative = inhibition) at 1uM” value worked out at 3.23%.
As to `CCn1c(=O)c2sccc2n2c(CCCC(=O)NC3CCN(Cc4ccccc4)CC3)nnc12`, the “hERG current change (%, negative = inhibition) at 1uM” value is listed as 8.55%.
Turning to `COC(=O)C1=C(C(=O)OC)[C@@H]2N(Cc3ccccc3)c3ccccc3[C@@]23C[C@@H](C(=O)OC)N(C(=O)COCc2ccccc2)C3=N1`, the “hERG current change (%, negative = inhibition) at 1uM” value is reported as 12.2%.
Consider `O=C(CSc1nccc(=O)[nH]1)NCc1ccc(Cl)cc1`, for which the “hERG current change (%, negative = inhibition) at 1uM” value was determined as 5.93%.
Turning to `CC(=O)NC(Cc1ccc(C)cc1)C(=O)NC1CCN(C(=O)c2cnccn2)CC1` (stereo not shown), the “hERG current change (%, negative = inhibition) at 1uM” value is -0.512%.
In the case of `NC(=O)CC(NC(=O)OCc1ccccc1)C(=O)O` (stereo not shown), the “hERG current change (%, negative = inhibition) at 1uM” value is recorded as -11.6%.
In the case of `CC1Cc2ccccc2N1C(=O)COc1nc2ccccc2nc1N1CCOCC1` (stereo not shown), the “hERG current change (%, negative = inhibition) at 1uM” value is given as 7.15%.
As to `O=S(=O)(c1ccc(F)cc1)N1CCCCC1c1cccnc1` (stereo not shown), the “hERG current change (%, negative = inhibition) at 1uM” value was found to be 10.1%.
Regarding `CN(CC(=O)NC1CCCc2ccccc21)S(=O)(=O)c1ccc2c(c1)c(=O)n(C)c(=O)n2C` (stereo not shown), the “hERG current change (%, negative = inhibition) at 1uM” value was found to be 8.89%.
Turning to `CC(C)(C)c1cc(C(=O)O)n(Cc2ccc(Cl)cc2Cl)n1`, the “hERG current change (%, negative = inhibition) at 1uM” value was determined as 4.47%.
`O=C(NCCN1CCOCC1)c1ccc(CS(=O)(=O)c2ccc(Cl)cc2)o1`: the “hERG current change (%, negative = inhibition) at 1uM” value is on record as 8.27%.
For the molecule `COc1cc(NC(=O)C(=O)N2CCN(C)CC2)c(OC)cc1Cl`, the “hERG current change (%, negative = inhibition) at 1uM” value worked out at 14.1%.
Regarding `Cc1ccsc1/C=N/NC(=O)CN1CCN(Cc2ccccc2)CC1`, the “hERG current change (%, negative = inhibition) at 1uM” value turned out to be 2.4%.
Regarding `CC(C)OCC(O)CCc1n[nH]c(=S)n1-c1ccccc1` (stereo not shown), the “hERG current change (%, negative = inhibition) at 1uM” value is 16.9%.
On to `CCc1nc2sc3c(=O)[nH]cnc3c2c2c1CSC(C)(C)C2`, for which the “hERG current change (%, negative = inhibition) at 1uM” value is listed as 10.4%.
Regarding `CC(C)C(NC(=O)CN(c1ccc2c(c1)OCCO2)S(=O)(=O)c1ccccc1)C(C)C`, the “hERG current change (%, negative = inhibition) at 1uM” value is listed as -2.43%.
As to `O=C(N/N=C/c1ccco1)c1cccc([N+](=O)[O-])c1`, the “hERG current change (%, negative = inhibition) at 1uM” value is given as 7.35%.
For `CCOc1ccccc1NC(C)C(=O)NC(=O)NC1CCCCC1` (stereo not shown) the value was -5.05%; for `CCN(CC(=O)NCc1ccc(F)cc1)Cc1nc2ccccc2c(=O)[nH]1`, -8.93%; for `COc1ccc(CCN2C(=O)N[C@@H](C(C)C)C2=O)cc1`, 11.9%.
Consider `Cc1cc(/C=N/Nc2nc(N)ncc2[N+](=O)[O-])c(C)n1-c1cccc(C(F)(F)F)c1`, for which the “hERG current change (%, negative = inhibition) at 1uM” value worked out at 21.2%.
For `COc1cccc(NC(=O)CN2C(=O)C(c3ccc(C)cc3)=NC23CCCCCC3)c1` the value was 8%; for `Cc1c(C(=O)N2CCCCC2)c(S(=O)(=O)NCCc2ccc(S(N)(=O)=O)cc2)c(C)n1C`, -0.839%.
For `Cc1cc(C)nc(NC(=O)c2c(-c3ccccc3Cl)noc2C)n1`, the “hERG current change (%, negative = inhibition) at 1uM” value amounted to 12.4%.
As to `Clc1ccc(-c2nnc(-c3ccccc3)c(N3CCSCC3)n2)cc1`, the “hERG current change (%, negative = inhibition) at 1uM” value is listed as 10.6%.
As to `COc1ccc(-c2ccc(CNCCCN3CCOCC3)o2)cc1Cl.Cl`, the “hERG current change (%, negative = inhibition) at 1uM” value is listed as 12.8%.
For `COc1ccc(CC2(CO)CCN(Cc3cnn(-c4ccccc4)c3)CC2)cc1`, the “hERG current change (%, negative = inhibition) at 1uM” value is reported as -57.2%.
`COc1ccc(-c2nnc(SCC(=O)/C(C#N)=C(\C)N)o2)cc1`: the “hERG current change (%, negative = inhibition) at 1uM” value is given as -4.9%.
For `CCN1CCN(C(=O)c2ccc(CS(=O)Cc3ccc(C)cc3)o2)CC1` (stereo not shown), the “hERG current change (%, negative = inhibition) at 1uM” value turned out to be 15.9%.
In the case of `COc1ccccc1NC(=O)CN(c1ccc(C23CC4CC(CC(C4)C2)C3)cc1)S(C)(=O)=O`, the “hERG current change (%, negative = inhibition) at 1uM” value is on record as 1.79%.
For `CCS(=O)(=O)N1CCN(c2cc3c(cc2[N+](=O)[O-])n(C)c(=O)n3C)CC1` the value was 14%; for `Cc1cc(=O)[nH]c(Nc2c(C)n(C)n(-c3ccccc3)c2=O)n1`, 3.24%.
With `COc1ccccc1-c1cc2nc(C)c(CCC(=O)NCc3ccco3)c(C)n2n1`, the “hERG current change (%, negative = inhibition) at 1uM” value is -3.36%.
Regarding `Cc1ccc(-n2c(=O)c(C#N)cc3c(=O)n4ccccc4nc32)cc1`, the “hERG current change (%, negative = inhibition) at 1uM” value was 2.63%.
As to `CC1(C)Cc2cccc(OCC(=O)Nc3cccnc3Cl)c2O1`, the “hERG current change (%, negative = inhibition) at 1uM” value is listed as 4.96%.
Turning to `CCc1cc2c3c(c1)C1(C(=O)N3C(C)(C)CC2C)C(C#N)=C(N)N2C(=C1C#N)Nc1ccccc12` (stereo not shown), the “hERG current change (%, negative = inhibition) at 1uM” value amounted to 3.45%.
Take `Cc1ccc(/C=N/Nc2ccc3c(C(F)(F)F)cc(C(F)(F)F)nc3n2)cc1`: the “hERG current change (%, negative = inhibition) at 1uM” value was 15.3%.
On to `COc1ccccc1NC(=O)c1ccc(NS(=O)(=O)c2c(C)noc2C)cc1`, for which the “hERG current change (%, negative = inhibition) at 1uM” value turned out to be 11.6%.
`CC(C)OCCCNC(=O)c1cc2c(=O)n(C)c3ccccc3c2n1C`: the “hERG current change (%, negative = inhibition) at 1uM” value was found to be 9.53%.
In the case of `COC(=O)C1=C(C)NC(=O)/C1=C/c1ccc(CNS(=O)(=O)c2ccc(C)cc2)o1`, the “hERG current change (%, negative = inhibition) at 1uM” value stood at 11.1%.
In the case of `NS(=O)(=O)c1ccc2nc(NC(=O)c3ccc4c(c3)OCCO4)sc2c1`, the “hERG current change (%, negative = inhibition) at 1uM” value is reported as 20.1%.
`O=C(CSc1nc(C(F)(F)F)cc(=O)[nH]1)N1CCCC1`: the “hERG current change (%, negative = inhibition) at 1uM” value is given as 21.9%.
For the molecule `Cc1nn(CC(=O)NCc2ccccc2)c(=O)c2ccccc12`, the “hERG current change (%, negative = inhibition) at 1uM” value is recorded as -1.97%.
`COc1ccc(-c2nc3c(c(SCC(=O)N4CCCC4)n2)COC(C)(C)C3)cc1`: the “hERG current change (%, negative = inhibition) at 1uM” value was determined as 4.96%.
For `CN(C(=O)CC1C(=O)NCCN1Cc1cccc(F)c1F)C1CC(C)(C)NC(C)(C)C1` (stereo not shown) the value was 24.2%; for `O=C(Nc1ccccc1)Nc1ccc(Cl)nc1Cl`, 15.6%; for `C=CCN(c1ccc(C(=O)Nc2cccc([N+](=O)[O-])c2)cc1)S(C)(=O)=O`, 11.6%.
As to `O=C(COC(=O)CCNS(=O)(=O)c1ccc(Cl)cc1)NCc1ccco1`, the “hERG current change (%, negative = inhibition) at 1uM” value was 2.55%.
As for `CC(C)NC1=C(Cl)C(=O)c2ccccc2C1=O`, the “hERG current change (%, negative = inhibition) at 1uM” value worked out at 15.1%.
For `CC(=O)Nc1cccc(NC(=O)C2CCCN2C(=O)Nc2cccc(C)c2)c1` (stereo not shown) the value was 6.47%; for `CCS(=O)(=O)N1CCCC(C(=O)NCc2ccc3c(c2)OCO3)C1` (stereo not shown), 7.19%; for `CCc1cccc(NC(=S)N(CCN(C)C)C(C)c2ccncc2)c1` (stereo not shown), -5.84%.
For `Cn1c(Cc2c[nH]c3ccccc23)n[nH]c1=S`, the “hERG current change (%, negative = inhibition) at 1uM” value turned out to be 8.98%.
For `CCOc1ccc(Cl)cc1S(=O)(=O)N1CCC(C(=O)N2CCCC2)CC1` the value was 12.7%; for `CNC(=O)c1ccsc1NC(=O)CCS(=O)(=O)c1ccc(Cl)cc1`, 10.2%.
As to `Cc1ccc(C2Nc3ccc4ccccc4c3C3=C2C(=O)CC(C)(C)C3)o1` (stereo not shown), the “hERG current change (%, negative = inhibition) at 1uM” value was found to be 7.69%.
For `Cc1cc2cc(CN(Cc3ccco3)C(=O)C3CCCCC3)c(=O)[nH]c2cc1C` the value was -5.65%.
Regarding `O=C(Cc1ccsc1)NCC(=O)Nc1ccc(F)c(F)c1`, the “hERG current change (%, negative = inhibition) at 1uM” value is 7.22%.
For `CN(C)c1nc(N)nc(N(c2ccccc2)c2ccccc2)n1`, the “hERG current change (%, negative = inhibition) at 1uM” value amounted to 6.27%.
Take `Cc1ccc2sc(N(CCCN(C)C)C(=O)CCS(=O)(=O)c3ccccc3)nc2c1C`: the “hERG current change (%, negative = inhibition) at 1uM” value was 3.82%.
